The values that follow come from paper PMC4604155.

By UniProt entry, the sequences of proteins in these tests, tags left out.
UniProt P08670: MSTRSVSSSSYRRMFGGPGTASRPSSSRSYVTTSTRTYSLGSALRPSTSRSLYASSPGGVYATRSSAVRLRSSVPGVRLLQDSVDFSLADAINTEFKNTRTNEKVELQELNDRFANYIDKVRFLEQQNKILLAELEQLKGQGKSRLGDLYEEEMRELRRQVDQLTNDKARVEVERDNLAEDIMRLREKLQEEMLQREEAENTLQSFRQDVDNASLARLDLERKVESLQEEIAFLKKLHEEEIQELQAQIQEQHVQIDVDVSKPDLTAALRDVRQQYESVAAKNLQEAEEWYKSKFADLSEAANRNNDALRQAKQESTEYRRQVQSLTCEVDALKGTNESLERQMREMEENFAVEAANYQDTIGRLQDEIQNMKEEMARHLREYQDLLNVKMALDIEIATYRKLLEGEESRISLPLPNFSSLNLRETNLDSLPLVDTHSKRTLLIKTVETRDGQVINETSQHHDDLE
UniProt P15331: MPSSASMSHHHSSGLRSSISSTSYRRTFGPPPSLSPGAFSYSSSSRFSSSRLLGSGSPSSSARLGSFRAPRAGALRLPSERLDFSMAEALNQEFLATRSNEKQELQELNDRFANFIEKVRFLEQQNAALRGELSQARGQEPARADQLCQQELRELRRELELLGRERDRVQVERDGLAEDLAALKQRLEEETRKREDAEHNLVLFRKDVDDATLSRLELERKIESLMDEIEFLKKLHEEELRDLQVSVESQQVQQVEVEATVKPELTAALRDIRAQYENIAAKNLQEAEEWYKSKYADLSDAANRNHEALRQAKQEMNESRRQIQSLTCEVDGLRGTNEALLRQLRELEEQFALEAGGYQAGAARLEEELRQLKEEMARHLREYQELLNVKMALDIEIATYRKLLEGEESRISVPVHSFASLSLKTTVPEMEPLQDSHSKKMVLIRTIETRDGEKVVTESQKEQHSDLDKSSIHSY

Results are given in words; binding and its absence hold for the method and conditions named. For some assays here: Binding seen in cells or lysates may run through a third protein. Some binding calls cover weakened binding; strength is not graded here. For some assays here: Tags and fused reporters may be left off the sequences shown.

Assay [1] addresses T1, FLAG-tagged full-length gigaxonin (GIG) (UniProt Q9H2C0).
T1 sequence: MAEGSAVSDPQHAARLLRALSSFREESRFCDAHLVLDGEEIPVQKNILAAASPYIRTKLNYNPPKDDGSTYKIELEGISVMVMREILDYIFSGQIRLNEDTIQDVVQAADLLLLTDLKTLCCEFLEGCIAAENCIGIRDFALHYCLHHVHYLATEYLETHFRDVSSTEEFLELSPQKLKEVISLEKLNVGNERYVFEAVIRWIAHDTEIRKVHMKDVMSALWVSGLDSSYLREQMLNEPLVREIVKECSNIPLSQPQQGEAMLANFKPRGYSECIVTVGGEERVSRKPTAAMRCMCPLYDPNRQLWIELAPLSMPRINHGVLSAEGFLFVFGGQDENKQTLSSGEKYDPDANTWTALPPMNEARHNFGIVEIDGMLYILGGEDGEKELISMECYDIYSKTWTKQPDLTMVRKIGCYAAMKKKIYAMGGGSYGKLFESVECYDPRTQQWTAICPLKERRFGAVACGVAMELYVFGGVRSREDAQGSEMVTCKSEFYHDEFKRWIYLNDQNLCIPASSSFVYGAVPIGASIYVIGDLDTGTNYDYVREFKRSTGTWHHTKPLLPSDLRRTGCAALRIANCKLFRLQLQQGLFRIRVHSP
Kind of assay: co-IP; lysates of HEK293 cells transfected with FLAG-GIG or FLAG-BTB, immunoprecipitated with anti-Flag beads or IgG; blot probed for VIM or PRPH.

The target in assay [2] is T2, truncated gigaxonin lacking the Kelch domain ("BTB" domain bait) (UniProt Q9H2C0).
T2 sequence: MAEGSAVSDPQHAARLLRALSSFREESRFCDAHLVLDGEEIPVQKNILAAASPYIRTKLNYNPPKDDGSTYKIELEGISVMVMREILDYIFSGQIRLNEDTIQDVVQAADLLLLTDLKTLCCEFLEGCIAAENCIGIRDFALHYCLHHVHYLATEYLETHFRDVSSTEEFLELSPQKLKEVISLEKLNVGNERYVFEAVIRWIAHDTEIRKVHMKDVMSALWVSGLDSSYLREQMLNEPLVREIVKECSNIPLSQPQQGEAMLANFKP
The description is as above.

Assay [3] addresses T2, truncated gigaxonin lacking the Kelch domain ("BTB" domain bait). As to the kind of experiment: band of dimer size on gel after FLAG immunoprecipitation (anti-Flag Western blot, silver stain); Flag-tagged BTB expressed in HEK293 cells, affinity purified with anti-Flag antibody; band at ~70 kDa beside the ~34 kDa BTB band. (Immunoblotting shows a protein as a band on a membrane.)

For assay [4], the target named is vimentin (VIM) (human (endogenous in HEK293)) (UniProt P08670). As to the kind of experiment: co-IP; endogenous VIM immunoprecipitated from HEK293 lysate with mouse anti-VIM antibody or control IgG; blot probed for endogenous GIG.

Consider “vimentin (VIM) (from UniProt P08670 1-466)”, for which the binding entry is reported as “binds” in assay [1] and “no binding” in assay [2].
For the molecule “mouse peripherin (PRPH), overexpressed (from UniProt P15331 1-475)”, the binding result in assay [1] is listed as “binds”.

B1: truncated gigaxonin lacking the Kelch domain ("BTB" domain bait) (domain or fragment, UniProt Q9H2C0 1-268)
chain: MAEGSAVSDPQHAARLLRALSSFREESRFCDAHLVLDGEEIPVQKNILAAASPYIRTKLNYNPPKDDGSTYKIELEGISVMVMREILDYIFSGQIRLNEDTIQDVVQAADLLLLTDLKTLCCEFLEGCIAAENCIGIRDFALHYCLHHVHYLATEYLETHFRDVSSTEEFLELSPQKLKEVISLEKLNVGNERYVFEAVIRWIAHDTEIRKVHMKDVMSALWVSGLDSSYLREQMLNEPLVREIVKECSNIPLSQPQQGEAMLANFKP
Turning to B1, in assay [3], the binding result is “binds”.

B2: endogenous gigaxonin (GIG) (protein, UniProt Q9H2C0 1-597)
chain: MAEGSAVSDPQHAARLLRALSSFREESRFCDAHLVLDGEEIPVQKNILAAASPYIRTKLNYNPPKDDGSTYKIELEGISVMVMREILDYIFSGQIRLNEDTIQDVVQAADLLLLTDLKTLCCEFLEGCIAAENCIGIRDFALHYCLHHVHYLATEYLETHFRDVSSTEEFLELSPQKLKEVISLEKLNVGNERYVFEAVIRWIAHDTEIRKVHMKDVMSALWVSGLDSSYLREQMLNEPLVREIVKECSNIPLSQPQQGEAMLANFKPRGYSECIVTVGGEERVSRKPTAAMRCMCPLYDPNRQLWIELAPLSMPRINHGVLSAEGFLFVFGGQDENKQTLSSGEKYDPDANTWTALPPMNEARHNFGIVEIDGMLYILGGEDGEKELISMECYDIYSKTWTKQPDLTMVRKIGCYAAMKKKIYAMGGGSYGKLFESVECYDPRTQQWTAICPLKERRFGAVACGVAMELYVFGGVRSREDAQGSEMVTCKSEFYHDEFKRWIYLNDQNLCIPASSSFVYGAVPIGASIYVIGDLDTGTNYDYVREFKRSTGTWHHTKPLLPSDLRRTGCAALRIANCKLFRLQLQQGLFRIRVHSP
For B2, the binding entry in assay [4] is “binds”.
